Source: PubChem BioAssay AID1963576 (National Center for Advancing Translational Sciences (NCATS), 2024)
The campaign covered roughly 46,000 compounds. About 60 (0.1%) were called active. Another 3% or so got no clear call; they are omitted. Calls come from the whole dose curve; as a rule, active = well fitted inhibition curve with a large enough effect; inconclusive = small, poorly fitted or top-dose-only effect; inactive = no such curve, though single readings can be large or run the other way. The list shows a part of the results.

Experiment: Primary qHTS assay for Inhibitors of ovarian cancer metastasis using an organotypic tumor microenvironment (TME) model.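 For activity change, negative = inhibition: plate controls were DMSO wells for no effect and tomatine positive control wells for full effect.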 Note: nearly all actives have a fitted effect of over 65% in size.
Details: SKOV3ip1-GFP adhesion/invasion on 3D omental model, fluorescence; series mostly up to 45.8 µM; activity change, negative = inhibition: at the top concentration
In short: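 Primary human omental fibroblast/mesothelial 3D culture pre-formed 48 h. SKOV3ip1-GFP cells added with compounds (0.36-46 umol/L), incubated 2 h RT/16 h 37 C, fixed; GFP cells quantified at 488/509 nm.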

Activity change, negative = inhibition, inactive:
CN1CCN(c2nc3c(S(=O)(=O)c4ccccc4)nnn3c3ccsc23)CC1 3.45%
CCCN(CCC)C(=O)Cn1c(=O)n(-c2ccc(OC)cc2)c(=O)c2ccc(C(=O)NCc3ccc(C)cc3)cc21 -8.36%
CCCn1c(NCc2ccc(N(CC)CC)cc2)nc2ccccc21 -2.48%
CCOC(=O)C1CCN(C(=O)CN2c3ccc(CC)cc3-c3ccccc3S2(=O)=O)CC1 -6.97%
CCS(=O)(=O)c1ncc(N(Cc2ccc(F)cc2)Cc2ccco2)c(C(=O)Nc2cc(C)ccc2C)n1 -4.5%
COc1cccc(-c2ccc3c(N)c(C(=O)Nc4cc(F)ccc4F)sc3n2)c1 2.75%
CCCCN(CCCNC(=O)c1c(C)oc2nc[nH]c(=O)c12)Cc1ccccc1 -1.09%
COc1ccc(CNC(=O)c2cnn(-c3ccc(F)cc3)c2-n2cccc2)cc1 44.7%
Cc1ccc(NC(=O)Cn2cc(S(=O)(=O)N3CCC(C)CC3)c3ccccc3c2=O)c(Br)c1 -20.9%
COc1ccc(-c2nnc(SCC(=O)N(C)Cc3ccccc3)o2)cc1OC 7.64%
O=S(=O)(Nc1cccc(-c2ccc(N3CCCC3)nn2)c1)c1ccc(F)c(C(F)(F)F)c1 2.12%
Cc1ccc(Nc2c(-c3cccnc3)nc3ccc(Br)cn23)cc1 -1.44%
CNC(=O)c1c(NC(=O)c2ccc(S(=O)(=O)N3CCCCC3C)cc2)sc2c1CCC2 (stereo unspecified) -8%
Cc1c(Cl)cccc1NC(=O)Cn1cc2c(n1)CCCC2 0.082%
COc1ccc(C)cc1-n1nnc(C(=O)Nc2cccc(SC)c2)c1C 10.2%
Cc1oc2c(c(C)cc3oc(=O)c(CC(=O)NCc4ccccc4)c(C)c32)c1C 6.77%
CCOC(=O)c1cc(-c2ccccc2)n(-c2cccc(C(=O)Nc3cccc(C(C)=O)c3)c2)c1C 6.54%
Cc1cccc(CNC(=O)c2ccc(NC(=O)N3CCSc4ccccc43)cc2)c1 2.22%
O=C(O)c1ccc(NC(=O)c2cc3ccccc3o2)cc1 6.58%
C[C@@H](Oc1cc(-c2cnn(C3CCNCC3)c2)cnc1N)c1c(Cl)ccc(F)c1Cl -15.8%
O=C(CSc1nc2c([nH]c3ccccc32)c(=O)n1-c1ccccc1)N1CCCCCC1 -9.94%
CCc1cccc(NC(=O)CCS(=O)(=O)c2ccc3nc(C)sc3c2)c1 -1.28%
Cc1cccc(-n2ccnc2SCC(=O)Nc2ccc3c(c2)OCO3)c1 -12.1%
Cc1nc2c3ccccc3nc(NNC(=O)CCC(=O)N3CCN(c4cccc(C(F)(F)F)c4)CC3)n2n1 -7.09%
CSCCC(NS(=O)(=O)c1ccc2c(c1)oc(=O)n2C)C(=O)N1CCN(c2ccc(F)cc2)CC1 (stereo unspecified) -9.63%
COc1ccc(CN2C(=O)c3oc4ccccc4c(=O)c3C2c2ccc(O)c(OC)c2)cc1 (stereo unspecified) -0.147%
Cc1csc2nc(CCNS(=O)(=O)c3ccc(F)cc3)cn12 5.17%
CC(=O)c1ccc(NC(=O)CCc2c(C)nn(-c3ccc(N4CCCCC4)nn3)c2C)cc1 4.73%
COc1cccc(C(=O)NC2CC(=O)N(c3ccc4c(c3)OCCO4)C2)c1OC (stereo unspecified) 7.2%
CCOc1ccccc1NC(c1nnc(-c2ccccc2)o1)c1ccc(F)cc1Cl (stereo unspecified) -3.68%
Cn1c(=O)oc2cc(S(=O)(=O)N3CCC(C(=O)N4CCN(c5ccc(Cl)cc5)CC4)CC3)ccc21 14.8%
O=C(Nc1ccc2oc(-c3ccc(Cl)cc3)nc2c1)c1ccc2ccccc2c1 5.63%
CCOC(=O)c1c(NC(=O)c2ccc(OC)c(OC)c2)sc2c1CCCCC2 -6.2%
COc1ccc(C2CC(=O)N(Cc3ccccc3)c3c2c(C)nn3-c2nc(C)cc(C)n2)c(OC)c1 (stereo unspecified) 3.09%
Cc1cccc(NS(=O)(=O)c2ccc(NC(=O)N3CCCC3)cc2)c1 -1.28%
CCc1ccc(NS(=O)(=O)c2ccc3[nH]cc(C(=O)N(C)Cc4ccco4)c(=O)c3c2)cc1 10.3%
CCc1ccccc1NC(=O)Cn1cc2c(n1)CCC(C)C2 (stereo unspecified) -5.55%
CCC(=O)N1CCc2cc(Br)cc(S(=O)(=O)CCC(=O)NCCc3ccccc3)c21 13%
CC(C)CN(CCNC(=O)c1cn(C)c2ccc(S(=O)(=O)N3CCCC3)cc2c1=O)CC(C)C 7.11%
CCOC(=O)c1ccc2[nH]c(CSc3nnc(-c4cccc(F)c4)n3C)cc(=O)c2c1 -0.36%
CCCc1cc(=O)[nH]c(Nc2cc(Cl)ccc2OC)n1 -8.45%
CCC(C)NC(=O)c1sc2ncccc2c1-n1c(C)ccc1C (stereo unspecified) 4.71%
CN(C(=O)CSc1nc2ccc(NC(=O)COc3ccccc3)cc2s1)c1ccccc1 -18.8%
Cc1ccc(CNc2nccn(-c3cc(C)cc(C)c3)c2=O)cc1 -0.944%
COc1ccc(OC)c(NC(=O)c2cc(=O)c3c(C)cc(C)cc3o2)c1 0.347%
CCOC(=O)c1c(NC(=O)c2cc(Cl)ccc2Cl)sc2c1CCCC2 -18.8%
COc1ccc(-c2ccc(CCC(=O)O)n2-c2ccc(Cl)cc2C)cc1 13.5%
CCN(C(=O)CSc1nc2n[nH]c(C)c2c(=N)n1-c1cccc(OC)c1)c1cccc(C)c1 -13.1%
Cc1cn2c(=O)c(S(=O)(=O)NCc3ccccc3Cl)c(C)nc2s1 -7.87%
Cc1ccc2[nH]c3c(=O)n(CC(=O)NCCc4ccc(Cl)cc4)ncc3c2c1 -0.955%
CCn1cc(S(=O)(=O)c2cccc(C)c2)c(=O)c2cc(F)c(N3CCN(c4ccccc4)CC3)cc21 -0.208%
COCCCn1c(=O)c2sccc2n2c(CCCC(=O)NCc3ccc(F)cc3)nnc12 -1.43%
CCc1ccc(-n2nc(CO)c(C(=O)NCc3ccccc3OC)n2)cc1 0.35%
COc1ccc(C(=O)NC(c2ccc(Cl)cc2)c2cc(Cl)c3cccnc3c2O)cc1 (stereo unspecified) 1.62%
CC(=O)C1=C(O)C=C2Oc3c(C(C)=O)c(O)c(C)c(O)c3C2(C)C1=O (stereo unspecified) -2.03%
O=C(NCCc1ccccc1)c1ccc2c(c1)N(Cc1ccc(F)cc1)C(=O)c1ccccc1S2 -9.6%
COc1ccc(CCNC(=O)Cc2c(C)c3cc4c(C)coc4c(C)c3oc2=O)cc1 -22.3%
COc1ccc(CCNC(=O)C2COc3ccccc3C2)cc1OC (stereo unspecified) -6.42%
CCc1ccccc1NC(=O)CC1Sc2ccc(C(F)(F)F)cc2NC1=O (stereo unspecified) 45.3%
CCCCSc1nnc2c(n1)OC(C)N(C(C)=O)c1ccccc1-2 (stereo unspecified) 2.25%
Cc1cc(Nc2nc(N[C@@H](C)c3ncc(F)cn3)ncc2Cl)n[nH]1 8.64%
Cc1cc(C)cc(NC(=O)CCC(=O)N2CCSc3ccccc32)c1 3.51%
CCCCN(CC)C(=O)c1cc2c(=O)n3cccc(C)c3nc2s1 -5.96%

outcome, inactive:
CCC(=O)Nc1ccc2nc(SCCOc3ccc(C)cc3)sc2c1
CCOC(=O)C1CCCN(C(=O)c2ccc(-n3ccc4ccccc43)s2)C1 (stereo unspecified)
Cc1cccc(Oc2ccc3c(c2)Oc2ccccc2NC3=O)c1
COc1cccc(N2CCN(C(=O)CN3C(=O)COc4ccc(S(=O)(=O)N5CCC(C)CC5)cc43)CC2)c1
COc1ccc(C(=O)NCC(c2cccnc2)N2CCc3ccccc32)cc1OC (stereo unspecified)
Cc1ccc(NC(=O)Cn2c(SCc3ccc(F)cc3)nc3cccnc32)cc1F
CC1CCc2c(sc(NC(=O)COc3ccccc3C(C)(C)C)c2C#N)C1 (stereo unspecified)
O=C(Nc1cccc(F)c1)C1CCN(c2nc3ccccc3[nH]2)CC1
CCCCOc1ccc(C(=O)N/C(=C\c2ccc(Br)cc2)C(=O)NC2CCCCC2)cc1
CCc1ccc(-n2nc(C)c3c(C)cc(=O)n(CC(=O)Nc4ccccc4C(=O)OC)c32)cc1
COc1ccc(CNc2ncnc3c2cnn3-c2ccc(C)c(C)c2)cc1
CCOc1ccc(CNC(=O)c2ccc3c(c2)nc2n3CCC(C)C2)cc1OC (stereo unspecified)
CCCCSCCCNC(=O)C1CCC(CNS(=O)(=O)c2c(C)cc(C)cc2C)CC1 (stereo unspecified)
O=C(CCOc1ccccc1)N(Cc1cccnc1)c1nc2ccc(F)cc2s1
Cc1ccccc1CNC(=O)Nc1ccc2c(c1)N(C)C(=O)c1ccccc1S2
CCOC(=O)c1cc(C)n(CC2CCC(C(=O)Nc3ccc(C(=O)OC)cc3)CC2)c1C (stereo unspecified)
CCOc1ccc(-c2oc3cc(Cl)ccc3c(=O)c2O)cc1OC
CCOC(=O)c1c(-c2ccccc2)oc2ccc(N(C(C)=O)S(=O)(=O)c3ccc(C)cc3)cc12
CCCN(C(=O)CCNC(=O)Cn1cnc2ccccc2c1=O)c1cccc(C)c1
Cc1cccc(NC(=O)COc2cccc3c(=O)n(C)ccc23)c1C
CCOc1cc(C2c3c(oc4ccccc4c3=O)C(=O)N2c2ccccn2)ccc1O (stereo unspecified)
Cc1ccc(C)c(-c2[nH]c3c(c2-c2c(-n4cccc4)n(C)c(=O)n(C)c2=O)c(=O)n(C)c(=O)n3C)c1
Cc1ccc(-n2nc(C(=O)N3CCN(c4cccc(C(F)(F)F)c4)CC3)c3c4ccccc4n(C)c3c2=O)cc1
Cc1ccc(CNc2cc(C)nc3nc(-c4cccc(C)c4)nn23)cc1
CCOC(=O)c1cccc(NC(=O)CCc2c(C)nn(-c3ccc(N4CCOCC4)nn3)c2C)c1
CCN(C(=O)CSc1nc2ccccc2n1CC(=O)Nc1ccc(F)cc1F)c1ccccc1
Cc1cc(C)n(CCc2nc3c4ccccc4nc(N4CCN(c5ccc(F)cc5)CC4)n3n2)n1
COc1ccc(NC(=O)C2CCN(c3cnccn3)CC2)cc1Cl
COc1ccc(C2Oc3nc(SC)nnc3-c3ccccc3N2C(C)=O)cc1 (stereo unspecified)
Cn1c(Oc2ccc(Cl)cc2)nc2c1c(=O)n(Cc1ccc(F)cc1)c(=O)n2C
Cc1ccc(C)c(NS(=O)(=O)c2cc3c4c(c2)C(C)C(=O)N4CCC3)c1 (stereo unspecified)
Cc1nc2ccn(Cc3ccco3)c(=O)c2cc1C(=O)NCc1ccc(F)cc1
Cc1ccc(NC(=O)CN2C(=O)CC(C)Sc3ccccc32)c(C)c1 (stereo unspecified)
